# PubChem BioAssay AID463173 (ICCB-Longwood Screening Facility, Harvard Medical School, 2010)
# Out of some 52,000 compounds screened, about 4,300 (8.3%) were called active. No stated cut-off is given here; in the data, active means survival mostly below about 52% (no sharp cut-off); inactive means mostly above about 56%. This is one part of the list.
# Tested on: DeltatarO mutant
# Assay: S. aureus survival, RN4220 and DeltatarO strains – OD600, teichoic acid synthesis inhibitors, primary screen (AID 463173)
# Conditions: S. aureus RN4220 wild type/DeltatarO growth, OD600, 18 h, stronger effect = lower value, screened at 18.75 µg/mL (by protocol)
row,SMILES,survival
1,COc1ccc(CCn2c(=O)c3ccccc3n(CC(=O)Nc3cccc(C)c3)c2=O)cc1OC,inactive: 83%
2,Cc1ccc(S(=O)Cc2ccc(C(=O)NC3CCCCCC3)o2)cc1 (centres undefined),inactive: 121%
3,CCn1c(SC)nnc1C1CCCN(C(=O)c2ccccc2-c2ccccc2)C1 (centres undefined),inactive: 75%
4,Cc1ccc(S(=O)(=O)Nc2ccc3[nH]c(=O)sc3c2)cc1C,inactive: 77%
5,CCN(CC)Cc1cc(C(=O)O)oc1C(C)(C)C,inactive: 106%
6,O=C(c1ccc2c(c1)N(Cc1ccc(Cl)cc1)C(=O)c1ccccc1S2(=O)=O)N1CCC(Cc2ccccc2)CC1,inactive: 69%
7,O=C(c1ccccc1)C(C(=O)N1CCCCC1)n1ccccc1=O (centres undefined),inactive: 74%
8,O=C(c1ccc2c(c1)N(Cc1ccc(F)cc1)C(=O)c1ccccc1S2(=O)=O)N1CCCCCC1,inactive: 71%
9,CCOc1ccc(NC(=O)CSC2=Nc3ccccc3C3=NC(CC(=O)NCc4ccccc4OC)C(=O)N23)cc1 (centres undefined),inactive: 116%
10,Cc1ccc(N2CC(NC(=O)c3ccco3)CC2=O)cc1 (centres undefined),inactive: 85%
11,Cc1ccc(Nc2nc(C(=O)N3CCC(C)CC3)cs2)cc1,inactive: 91%
12,COc1cccc(-n2c(=O)c3cc(OC)c(OC)cc3n(CC(=O)Nc3ccccc3)c2=O)c1,inactive: 122%
13,C=CCN1C(=O)C2C(C(=O)NC3CCCCC3C)C3(C)C=CC2(O3)C1C(=O)NC(C)(C)C (centres undefined),inactive: 65%
14,Cc1ccccc1NS(=O)(=O)c1ccc2c(c1)NC(=O)CCS2,inactive: 64%
15,CCn1c(SCC(=O)Nc2ccccc2)nc2c([nH]c3ccccc32)c1=O,inactive: 76%
16,Clc1ccccc1C(c1nnnn1Cc1ccco1)N1CCN(Cc2ccco2)CC1 (centres undefined),inactive: 94%
17,Cc1ccccc1CN1C(=O)c2ccccc2S(=O)c2ccc(C(=O)NCc3ccco3)cc21 (centres undefined),inactive: 71%
18,Cc1[nH]c2ccc(C(=O)Nc3ccc(F)cc3)cc2c1C,inactive: 125%
19,CCN(C(=O)CCS(=O)(=O)c1ccc2c(c1)oc(=O)n2C)c1ccc(OC)cc1,inactive: 75%
20,Cc1ccc(NC(=O)CSc2nc3c(c(=O)[nH]2)CCC3)cc1Cl,inactive: 70%

row,SMILES,survival
1,O=S(=O)(c1ccc(Br)cc1)c1nc(-c2cccs2)oc1SCc1ccc(F)cc1,inactive: 71%
2,Cc1ccc(-c2nc(CN(C)C)cc(CN(C)C)c2O)cc1,inactive: 85%
3,CCS(=O)(=O)N1CCC2(CC1)OC(=O)C(C)=C2C(=O)NCc1cccc(Cl)c1,inactive: 58%
4,Cn1c(=O)c2ccccc2n(CC(N)=O)c1=O,inactive: 110%
5,CC(C)(C)c1ccc(C(=O)Nc2ccc(C(=O)OCc3cc(=O)n4ccsc4n3)cc2)cc1,inactive: 96%
6,CCC1CCCCN1CCCNC(=O)c1cn(CC)c2ccc(S(=O)(=O)N(C)C3CCCCC3)cc2c1=O (centres undefined),inactive: 94%
7,CCc1ccc(C(c2c(C)[nH][nH]c2=O)C(C#N)C#N)cc1 (centres undefined),inactive: 91%
8,COc1ccccc1C(=O)Nc1c(C(=O)N2CCN(c3ccccc3F)CC2)oc2ccccc12,inactive: 92%
9,COc1ccc(NC(=O)CCCSc2nc(-c3ccco3)cc(C(F)(F)F)n2)cc1,inactive: 55%
10,Cc1cc2c(cc1S(=O)(=O)NCc1ccccc1)OCC(=O)N2,inactive: 91%
11,O=C(c1ccccc1)c1ccc2nc(N3CCN(c4ccccc4)CC3)c3nncn3c2c1,inactive: 92%
12,CCN(CC)S(=O)(=O)c1ccc(-c2nnc(SCC(=O)N3CCCC3)n2CC)cc1,inactive: 103%
13,CN(C)c1cccc(C(=O)Nc2nc3ccc(S(=O)(=O)NC(C)(C)C)cc3s2)c1,active: 47%
14,Cc1ccc(CNC(=O)c2ccc3c(c2)NC(=O)C(CS(=O)(=O)Cc2ccc(F)cc2)N3)cc1 (centres undefined),inactive: 77%
15,CN(C)N=Nc1ccc(Oc2ccccc2)cc1,inactive: 116%
16,CCCCC(=O)Nc1cc(-c2nc3cccnc3s2)ccc1C,active: 35%
17,CCOc1ccc(NC(=O)CSc2ncnc3c2sc2ccccc23)cc1,inactive: 94%
18,COc1ccc(C(=O)n2nc(-c3ccc(Cl)cc3)nc2NCc2ccco2)cc1,inactive: 115%
19,CCc1ccc(NC(=O)c2cc3c(COC(C)=O)cnc(C)c3oc2=O)cc1,inactive: 108%
20,Cc1cc(C)cc(Nc2nc3ccccc3nc2-n2nc(C)cc2C)c1,active: 23%

row,SMILES,survival
1,CCOC(=O)N1CCc2c(sc3c2c(=O)n(Cc2ccccc2)c(=O)n3CC(=O)Nc2cccc(C)c2)C1,inactive: 84%
2,COc1ccc(-c2cn3c(n2)sc2cc(C(=O)Nc4c(C)cccc4C)ccc23)cc1,inactive: 49%
3,Cc1cc2cc3c(cc2nc1SCC(=O)N1CCCC1)OCCO3,inactive: 54%
4,Cc1ccc(CNC(=O)C2(c3cccs3)CCOCC2)cc1,inactive: 94%
5,Cn1c(=O)n(C)c2cc(/C=N/NC(N)=S)ccc21,inactive: 98%
6,CCCN1CCN(CCCNC(=O)C(CC)n2nc(C)n3c(cc4occc43)c2=O)CC1 (centres undefined),inactive: 86%
7,Cc1coc2cc3oc(=O)c(CCC(=O)NCc4ccccc4Cl)c(C)c3cc12,inactive: 66%
8,O=C(NCC(c1cccnc1)N1CCN(Cc2ccccc2)CC1)C(=O)Nc1cccc(Cl)c1 (centres undefined),inactive: 77%
9,O=C(O)c1cccc(-n2cnc3cccnc32)c1,inactive: 100%
10,CCOc1ccc(-c2nc(CSCC(=O)NCc3ccc(C)cc3)c(C)o2)cc1,inactive: 78%
11,COC(=O)c1cc(NC(=O)c2sc3ccccc3c2Cl)cc(C(=O)OC)c1,inactive: 52%
12,COc1ccc(CCNc2nc3cc(OC)c(OC)cc3c3nc(-c4ccccc4)nn23)cc1OC,inactive: 93%
13,COC(=O)c1cc2occc2n1CC(=O)Nc1ccc(C)cc1Cl,inactive: 111%
14,Cc1cc(N)cc(C(=O)O)c1O,inactive: 104%
15,O=C(C(F)F)N1CCN(c2ccccc2)CC1,inactive: 71%
16,COc1ccc(-c2nn(-c3ccc(C)cc3)c3c2cnc2ccc(C)cc23)cc1OC,inactive: 76%
17,Cc1ccc(C)c(-n2nnc(-c3nc(-c4ccccc4C)no3)c2C)c1,inactive: 86%
18,CC(NC(=O)c1ccco1)c1nc(-c2ccccc2)no1 (centres undefined),inactive: 85%
19,Cc1cc(=O)n(CC(=O)NC(C)c2ccccc2)c2c1c(C)nn2-c1cccc(F)c1 (centres undefined),inactive: 107%
